To fix the notation:
B1: GPR68, Q15743 (parent)
chain: MGNITADNSSMSCTIDHTIHQTLAPVVYVTVLVVGFPANCLSLYFGYLQIKARNELGVYLCNLTVADLFYICSLPFWLQYVLQHDNWSHGDLSCQVCGILLYENIYISVGFLCCISVDRYLAVAHPFRFHQFRTLKAAVGVSVVIWAKELLTSIYFLMHEEVIEDENQHRVCFEHYPIQAWQRAINYYRFLVGFLFPICLLLASYQGILRAVRRSHGTQKSRKDQIQRLVLSTVVIFLACFLPYHVLLLVRSVWEASCDFAKGVFNAYHFSLLLTSFNCVADPVLYCFVSETTHRDLARLRGACLAFLTCSRTGRAREAYPLGAPEASGKSGAQGEEPELLTKLHPAFQTPNSPGSGGFPTGRLA

In series [1] the parent is B1. Briefly: cAMP reporter score (Enrich2 score, wild type = 0); higher = more signal; HEK293T, FACS bins.
The variants in series [2] derive from B1. Briefly: surface expression score (Enrich2 score, wild type = 0); higher = more signal; HEK293T, FACS bins.

Scores with a large standard error are left out. The source holds two more conditions with little spread; they are left out. Read del as a deletion of the residues named and ins as an insertion between two positions. For some of these results: The concentration of ogerin is not given here.

For the variant E339_L340insGS, the cAMP reporter score in series [1] (pH 5.5) came to 0.631; in series [1] (pH 6, modulator: ogerin), 0.563; in series [1] (pH 6.5, modulator: ogerin), 1.34. The surface expression score in series [2] is 0.724.
Consider L344R, for which the cAMP reporter score in series [1] (pH 5.5) was 0.772; in series [1] (pH 6), 0.589; in series [1] (pH 6, modulator: ogerin) it was 0.672; in series [1] (pH 6.5, modulator: ogerin), 1.22. Further, in series [2], the surface expression score stood at 1.67.
L344Q: the cAMP reporter score in series [1] (pH 5.5) is 0.376; in series [1] (pH 6), 2.65; in series [1] (pH 6, modulator: ogerin) it was 0.794; in series [1] (pH 6.5, modulator: ogerin), 0.818.
L344E: the cAMP reporter score was found to be 0.251 in series [1] (pH 5.5); 0.975 in series [1] (pH 6); 0.124 in series [1] (pH 6, modulator: ogerin); 0.824 in series [1] (pH 6.5, modulator: ogerin). Further, the surface expression score in series [2] stood at 1.05.
As to L344K, the cAMP reporter score was determined as 0.721 in series [1] (pH 5.5); 0.874 in series [1] (pH 6); 1.06 in series [1] (pH 6, modulator: ogerin); 0.982 in series [1] (pH 6.5, modulator: ogerin). In addition, in series [2], the surface expression score stood at 1.27.
Take L344C: the cAMP reporter score in series [1] (pH 5.5) was -0.485; in series [1] (pH 6, modulator: ogerin), 0.203; in series [1] (pH 6.5, modulator: ogerin) it was -0.343. The surface expression score in series [2] is -0.8.
For L344T, the cAMP reporter score in series [1] (pH 5.5) was 1.08; in series [1] (pH 6, modulator: ogerin) it was 0.364. Also, in series [2], the surface expression score is -0.243.
Regarding L344W, the cAMP reporter score is 1.04 in series [1] (pH 5.5); 0.227 in series [1] (pH 6); 0.722 in series [1] (pH 6, modulator: ogerin); 1.37 in series [1] (pH 6.5, modulator: ogerin). In series [2], the surface expression score amounted to 0.613.
In the same order, the values of L344N are 0.37, 2.27, 0.442, -0.058 and 1.28.
In the same order, the values of L344A are 1.23, 0.201, 1.05, 1.58 and 1.45.
L344S: the cAMP reporter score in series [1] (pH 5.5) was 0.598; in series [1] (pH 6, modulator: ogerin), 0.757; in series [1] (pH 6.5, modulator: ogerin) it was 1.94. Moreover, in series [2], the surface expression score was determined as 1.21.
For the variant L344V, the cAMP reporter score amounted to 0.589 in series [1] (pH 5.5); 0.51 in series [1] (pH 6); 0.512 in series [1] (pH 6, modulator: ogerin); 0.587 in series [1] (pH 6.5, modulator: ogerin). Further, in series [2], the surface expression score was determined as 0.906.
For L344P, the cAMP reporter score in series [1] (pH 5.5) is -0.58; in series [1] (pH 6), -0.358; in series [1] (pH 6, modulator: ogerin), -0.838; in series [1] (pH 6.5, modulator: ogerin) it was -0.349. In series [2], the surface expression score is -0.554.
In the same order, the values of L344F are 0.847, 1.62, 0.798, 0.736 and 0.296.
The corresponding values for L344D are 0.003, 1.23, 0.134, 0.564 and -0.725.
Turning to L344M, the cAMP reporter score in series [1] (pH 5.5) is -0.741; in series [1] (pH 6), 0.008; in series [1] (pH 6, modulator: ogerin) it was -1.32; in series [1] (pH 6.5, modulator: ogerin), -0.213. Moreover, in series [2], the surface expression score stood at 0.336.
The corresponding values for L344H are 0.88, 1.93, 0.443, 1.73 and 1.36.
Consider L344Y, for which the cAMP reporter score in series [1] (pH 5.5) is 0.233; in series [1] (pH 6), 0.063; in series [1] (pH 6, modulator: ogerin), -0.087; in series [1] (pH 6.5, modulator: ogerin), 1.26. Also, the surface expression score in series [2] was 0.238.
Take L344G: the cAMP reporter score was found to be 0.069 in series [1] (pH 5.5); 0.778 in series [1] (pH 6); 0.89 in series [1] (pH 6, modulator: ogerin); 0.531 in series [1] (pH 6.5, modulator: ogerin). In addition, the surface expression score in series [2] amounted to 0.609.
In the same order, the values of L344I are 1.68, 0.958, 0.449, 0.937 and 1.21.
In the same order, the values of T350_P351insG are 0.113, -0.193, 0.129, -0.134 and 0.167.
The corresponding values for K343T are 0.361, 1.03, 1.09, 0.986 and 1.15.
As for K343S, the cAMP reporter score was 0.947 in series [1] (pH 5.5); 0.217 in series [1] (pH 6); 0.581 in series [1] (pH 6, modulator: ogerin); 1.73 in series [1] (pH 6.5, modulator: ogerin). In addition, the surface expression score in series [2] came to 0.843.
Take K343V: the cAMP reporter score was determined as 0.23 in series [1] (pH 5.5); 0.422 in series [1] (pH 6, modulator: ogerin); 0.589 in series [1] (pH 6.5, modulator: ogerin). For the same variant, in series [2], the surface expression score stood at 1.3.
For the variant K343Y, the cAMP reporter score in series [1] (pH 5.5) was 0.308; in series [1] (pH 6), -0.909; in series [1] (pH 6, modulator: ogerin) it was 0.553; in series [1] (pH 6.5, modulator: ogerin), -0.975. Moreover, in series [2], the surface expression score is 0.626.
For the variant K343W, the cAMP reporter score in series [1] (pH 5.5) is -0.344; in series [1] (pH 6) it was -0.162; in series [1] (pH 6, modulator: ogerin), 0.026; in series [1] (pH 6.5, modulator: ogerin), -0.72. In series [2], the surface expression score came to 0.288.
The corresponding values for K343H are 0.705, 0.608, 0.933, 0.704 and 0.585.
In the same order, the values of K343I are -0.342, -0.514, 0.716, 0.302 and 1.15.
The corresponding values for K343R are 0.394, -0.171, 0.393, 0.121 and 0.664.
On to K343G, for which the cAMP reporter score in series [1] (pH 5.5) is 1.53; in series [1] (pH 6) it was 0.386; in series [1] (pH 6, modulator: ogerin), 1.29; in series [1] (pH 6.5, modulator: ogerin), 1.35. Also, the surface expression score in series [2] came out at 1.21.
Turning to K343D, the cAMP reporter score is 0.575 in series [1] (pH 5.5); 0.329 in series [1] (pH 6); 0.546 in series [1] (pH 6, modulator: ogerin); -0.24 in series [1] (pH 6.5, modulator: ogerin). For the same variant, the surface expression score in series [2] was found to be 2.75.

The values are drawn from the GPR68 mutational scans of Howard et al. (2025).
